Assay in all cases: Primary Screen for Target Class Profiling of Small Molecule Inhibitors of Methyltransferases
The target of assay [1] is Glycine N-methyltransferase (Homo sapiens) (UniProt Q14749). As to conditions: purified enzyme, MTase-Glo SAH luminescence; measured here: GNMT inhibition; at 40 µM; stronger effect = lower value. Put shortly: (§1)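 Each enzyme was reacted with SAM and its substrate, with compounds tested once at 40 uM; SAH formed was read by MTase-Glo luminescence.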
The target of assay [2] is Guanidinoacetate N-methyltransferase (Homo sapiens) (UniProt Q14353). To be noted: purified enzyme, MTase-Glo SAH luminescence; measured here: GAMT inhibition; at 40 µM; stronger effect = lower value. A digest of the protocol:
as §1

In assay [3] the target is Histamine N-methyltransferase (Homo sapiens) (UniProt P50135). To be noted: purified enzyme, MTase-Glo SAH luminescence; measured here: HNMT inhibition; at 40 µM; stronger effect = lower value. A digest of the protocol:
as §1

The target of assay [4] is Nicotinamide N-methyltransferase (Homo sapiens) (UniProt P40261). To be noted: purified enzyme, MTase-Glo SAH luminescence; measured here: NNMT inhibition; at 40 µM; stronger effect = lower value. Put shortly: as §1
Assay [5] has as its target Phenylethanolamine N-methyltransferase (Homo sapiens) (UniProt P11086). To be noted: purified enzyme, MTase-Glo SAH luminescence; measured here: PNMT inhibition; at 40 µM; stronger effect = lower value. A digest of the protocol: as §1

Several values for one entry are separate records, joined by “and”; a condition that tells them apart may be missing. Equal entries are not always repeated. This is one part of the list. Shown are side measurements of this screen, not its main read-out; they come without a call.
% is set by controls: 0 for no effect and ±100 for the full control effect.

For `COc1ccc(C(=O)N2CCC3(C2)C(=O)Nc2ccccc23)cc1` (configuration not stated), the activity change, negative = inhibition in assay [1] is -5.06%; in assay [2], 0.871%; in assay [3], 0.961%; in assay [4] it was -5.5%; in assay [5], -1.73%.

For `Cc1cccc(CNC(=O)c2ncn3c2C(=O)N(C2CC2)C(C)(C(=O)NCc2cccc(C)c2)C3)c1` (configuration not stated), the activity change, negative = inhibition in assay [1] came to 3.03%; in assay [2], 2.15%; in assay [3] it was 7.52%; in assay [4] it was 7.35%; in assay [5], 10.2%.

Take `O=C(CC1NCCC[C@H]1O)Cn1cnc2cc(Br)c(Cl)cc2c1=O` (some centres not stated): the activity change, negative = inhibition was -4.74% in assay [1]; -22.9% in assay [2]; -6.73% in assay [3]; -27.2% in assay [4]; -6.62% in assay [5].

For `COc1ccc2cc(-c3cc(-c4cc(Cl)cc(Cl)c4)nn3C(C)c3ccc(C(=O)NCCC(=O)O)cc3)ccc2c1` (configuration not stated), the activity change, negative = inhibition in assay [1] is -1.06%; in assay [2], 19.9%; in assay [3], 9.76%; in assay [4], -3.41%; in assay [5] it was 7.8%.

For the compound `Cc1ccc(C(=O)N2CCC(Cc3noc(C4CCOCC4)n3)C2)s1` (configuration not stated), the activity change, negative = inhibition in assay [1] was -4.42%; in assay [2], -5.86%; in assay [3], -3.86%; in assay [4] it was -12.4%; in assay [5], -6.82%.

Take `Cc1noc(C)c1-c1cc(O)cc(C(O)c2ccccc2)c1` (configuration not stated): the activity change, negative = inhibition in assay [1] is -0.57%; in assay [2], 2.91%; in assay [3], 0.719%; in assay [4], -15.2%; in assay [5], -2.71%.

On to `Cc1cc2c(cc3n2CC(C)(C(=O)NC2CCCCC2)N(Cc2ccco2)C3=O)o1` (configuration not stated), for which the activity change, negative = inhibition is -9.4% in assay [1]; 0.771% in assay [2]; -6.68% in assay [3]; -6.71% in assay [4]; -4.16% in assay [5].

As to `Cc1ccccc1CCNC(=O)c1cc2n(n1)CC(C)(C(=O)NCc1ccc(F)cc1)N(C)C2=O` (configuration not stated), the activity change, negative = inhibition is -2.08% in assay [1]; 3.09% in assay [2]; -8.23% in assay [3]; 0.14% in assay [4]; -2.76% in assay [5].

For the compound `O=C(O)Cc1ccc(O)c(O)c1`, the activity change, negative = inhibition in assay [1] is -60.8%; in assay [2] it was 12.2%; in assay [3], 10.1%; in assay [4], -4.46%; in assay [5] it was 3.4%.

Take `NC(=O)c1cccc2[nH]c(-c3ccc([C@@H]4CCCN4)cc3F)nc12`: the activity change, negative = inhibition is -21.4% in assay [1]; -31% and -23.9% in assay [2]; -67.2% in assay [3]; -18.3% and -61% and -56% in assay [4]; 21.1% and -29.5% and -25.2% in assay [5].

For `O=c1c2ccccc2n2c(SCc3cccc(F)c3)nnc2n1CCc1ccccc1`, the activity change, negative = inhibition in assay [1] was -8.58%; in assay [2], -0.741%; in assay [3] it was -4.45%; in assay [4], -10.3%; in assay [5], -4.48%.

Consider `Cc1ccc(-n2cccc2CC(=O)N2CCCC2)cc1`, for which the activity change, negative = inhibition in assay [1] is -4.68%; in assay [2], -4.21%; in assay [3] it was -1.47%; in assay [4], -2.38%; in assay [5], -0.738%.

Regarding `CCN1C(=O)c2cc(C(=O)N3CCN(c4ccccc4)CC3)nn2CC1(C)C(=O)NC1CCCC1` (configuration not stated), the activity change, negative = inhibition in assay [1] is 1.03%; in assay [2], 3.46%; in assay [3], -0.913%; in assay [4], 1.92%; in assay [5], -0.682%.

`O=C(c1cnc(C2CC2)nc1)N1CCC2(CCNCC2CO)CC1` (configuration not stated): the activity change, negative = inhibition was -1.67% in assay [1]; -4.95% in assay [2]; -8.45% in assay [3]; -19.6% in assay [4]; -13.6% in assay [5].

With `Cc1cn2cc(CC(=O)N3CCC4(CC3)CN(Cc3ccc(-n5nccn5)cc3Cl)C4)nc2s1`, the activity change, negative = inhibition in assay [1] is -7.56%; in assay [2], 5.98%; in assay [3], 5.75%; in assay [4], -23.3%; in assay [5] it was -14.9%.

In the case of `Cc1ccc(CN2CCN(Cc3ccc(=O)n(C)c3)CC2)cc1`, the activity change, negative = inhibition in assay [1] is -5.44%; in assay [2], -3.25%; in assay [3] it was -1.41%; in assay [4], -5.64%; in assay [5], -19%.

In the case of `C=CCOc1ccccc1CNc1ccc2[nH]c(=O)[nH]c2c1`, the activity change, negative = inhibition in assay [1] is -13.3%; in assay [2], 4.1%; in assay [3] it was -13.2%; in assay [4], -13.5%; in assay [5] it was -13.1%.

For the compound `COc1ccc(N2CCN(C(=O)CCCc3nnc4n5nc(-c6ccccc6)nc5c5ccccc5n34)CC2)cc1`, the activity change, negative = inhibition was -12.3% in assay [1]; 0.313% in assay [2]; -3.09% in assay [3]; -5.91% in assay [4]; -6.75% in assay [5].

Turning to `C=CC(C)(O)CCC1C(C)(O)CCC2C(C)(C)CCCC21C` (configuration not stated), the values for the activity change, negative = inhibition in assay [1] and in assay [3] were 1.82% and 9.84%, respectively.

As for `O=C(O)c1cccc(CN2C(=O)/C(=C(\c3ccccc3)c3ccc(Cl)cc3)c3ccccc32)c1`, the activity change, negative = inhibition in assay [1] is -52%; in assay [2], 7.87%; in assay [3], 1.59%; in assay [4], -63.7%; in assay [5], -8.58%.

In the case of `Cc1ccc(NC(=O)Cn2c(=O)oc3cc(S(=O)(=O)N4CC(C)CC(C)C4)ccc32)c(C)c1` (configuration not stated), the activity change, negative = inhibition in assay [1] is -5.06%; in assay [2], -20.1%; in assay [3], 5.38%; in assay [4] it was 7.88%; in assay [5], -1.29%.

Turning to `CN1C(=O)CCC2(CNC(=O)CCc3c[nH]c4ccccc34)CCC=C12` (configuration not stated), the activity change, negative = inhibition in assay [1] was -3.36%; in assay [2], -0.65%; in assay [3] it was 0.078%; in assay [4], -4.08%; in assay [5], -3.7%.

In the case of `Cc1ccc(-c2n[nH]n3c2nc(=O)c2ccc(C(=O)N4CCN(c5ccccc5F)CC4)cc23)cc1`, the activity change, negative = inhibition in assay [1] is -4.63%; in assay [2], 0.202%; in assay [3], 2.41%; in assay [4], 0.903%; in assay [5], -1.39%.

Turning to `N#Cc1ccc(-n2nc(C3CCOCC3)nc2C2(C(N)=O)CC2)cc1`, the activity change, negative = inhibition was -1.13% in assay [1]; 2.32% in assay [2]; 2.27% in assay [3]; -0.478% in assay [4]; 15.4% in assay [5].

As to `Cc1ccc(NC(=O)CSc2nnc3n(CC(C)C)c(=O)c4ccccc4n23)c(C)c1`, the activity change, negative = inhibition in assay [1] was -1.85%; in assay [2], 3.45%; in assay [3], 5.76%; in assay [4], -4.87%; in assay [5], 2.28%.

As for `CCN1CCN(CCNC(=O)CN2CCCc3nc(C4CC4)ncc3C2=O)CC1`, the activity change, negative = inhibition in assay [1] was -3.08%; in assay [2], -6.13%; in assay [3], -21.4%; in assay [4], -6.81%; in assay [5], -6.47%.

On to `CC(C)=CC(=O)N1C[C@@H](NC(=O)NC2CCCCC2)C[C@H]1C(=O)N[C@H](Cc1c[nH]c2ccccc12)C(N)=O`, for which the activity change, negative = inhibition in assay [1] is -6%; in assay [2], -6.67%; in assay [3], -1.54%; in assay [4] it was -11.5%; in assay [5] it was -19.7%.

As for `O=S(=O)(c1ccccc1Cl)N1CCC(c2noc(COCc3ccccc3)n2)CC1`, the activity change, negative = inhibition in assay [1] is -6.7%; in assay [2], -8.05%; in assay [3], -4.51%; in assay [4], -14.7%; in assay [5], -15%.

With `CC(=O)O[C@@H]1[C@@H](CO)O[C@@](CO)(O[C@H]2O[C@H](COC(=O)/C=C/c3ccccc3)[C@@H](O)[C@H](O)[C@H]2O)[C@H]1O`, the activity change, negative = inhibition in assay [1] was -0.995%; in assay [2], -3.37%; in assay [3], -6.41%; in assay [4], -12.2%; in assay [5], -0.658%.

Source of the values: PubChem BioAssay AID1745853 (National Center for Advancing Translational Sciences (NCATS), 2022).
